# The campaign covered roughly 370,000 compounds. About 150 (0.041%) were called active. This list was built around the results that the source calls inconclusive (neither active nor inactive); the mix of calls is not that of the screen. Calls follow the shape of the dose curve; as a rule, active = well fitted inhibition curve with a large enough effect; inconclusive = small, poorly fitted or top-dose-only effect; inactive = flat fitted curve, though single readings scatter. Potencies of inconclusive entries are left out as doubtful fits.
# Target: Beta-lactamase (Escherichia coli (strain K12)) (UniProt P00811)
# UniProt P00811, sequence (P00811 whole entry, looked up): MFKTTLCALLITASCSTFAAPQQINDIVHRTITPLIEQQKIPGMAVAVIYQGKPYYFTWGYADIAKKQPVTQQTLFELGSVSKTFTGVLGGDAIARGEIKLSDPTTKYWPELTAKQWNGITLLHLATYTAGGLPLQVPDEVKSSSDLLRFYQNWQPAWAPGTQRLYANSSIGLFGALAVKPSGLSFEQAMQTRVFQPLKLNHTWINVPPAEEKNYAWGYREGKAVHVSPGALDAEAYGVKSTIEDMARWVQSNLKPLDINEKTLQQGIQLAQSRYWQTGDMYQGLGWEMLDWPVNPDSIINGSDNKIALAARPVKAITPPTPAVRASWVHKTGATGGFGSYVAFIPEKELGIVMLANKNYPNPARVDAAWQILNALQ
# Assay: qHTS Inhibitors of AmpC Beta-Lactamase (assay with detergent); also: nearly all actives have a fitted effect of over 25% in size
# Conditions: AmpC hydrolysis of nitrocefin, absorbance 480 nm, 0.01% Triton; series mostly up to 114 µM
# Outline: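 20 mM phosphate pH 7.0 + 0.01% (detergent screen) or 0.0001% Triton X-100; 5.3 nM AmpC reagent; cpd preinc 15 min RT; nitrocefin (800 uM stock) to start; A480 q20 s × 4 min; Activity was normalised to no-enzyme and no-compound control wells.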
# Potency is read from the fitted curve at half-maximal effect; tags tell the direction and shape of the fitted curve.
row,Compound,Potency
1,Cc1c(C(=O)Nc2ccncc2)oc2c1C(=O)CC(C)(C)C2,"inconclusive [inhibitor, partial curve]"
2,COc1ccc(OC)c(-c2csc(NC(=O)C3CSC4(C)CCC(=O)N34)n2)c1 (configuration not stated),"inconclusive [inhibitor, full curve]"
3,Cn1c(O)c(C=NCCc2c[nH]c3ccccc23)c(=O)n(C)c1=O,"inconclusive [inhibitor, single point]"
4,CC(C)CN(CCCNC(=O)CN1C(=O)COc2ccc(S(=O)(=O)N3CCCCCC3)cc21)CC(C)C,inactive
5,Cc1noc(C)c1CSCC(=O)N(C)CC(=O)Nc1ccccc1C(F)(F)F,"inconclusive [inhibitor, full curve, poor fit]"
6,Cc1ccc(C(=O)NC2(C(F)(F)F)NC(=O)N(c3ccc(Cl)cc3)C2=O)cc1 (configuration not stated),"inconclusive [inhibitor, single point]"
7,CCOC(=O)C1=C(C)Nc2nc(C)nn2C1c1cc(OC)ccc1OC (configuration not stated),"inconclusive [inhibitor, full curve, poor fit]"
8,COc1ccc(OC)c(S(=O)(=O)N2CCN(C(=O)c3cc(C4CC4)nn3-c3ccccc3)CC2)c1,"inconclusive [inhibitor, partial curve, poor fit]"
9,COCc1nnc(NC(=O)c2cccs2)s1,"inconclusive [inhibitor, full curve, poor fit]"
10,Cc1ccc(O)c(-c2cc(C(F)(F)F)[nH]n2)c1,inactive
11,CCC(C(=O)NC1CCCC1)N(C(=O)Cn1nnc(-c2ccc(C)o2)n1)c1cccc(OC)c1 (configuration not stated),"inconclusive [inhibitor, partial curve]"
12,CCCNC(=O)COc1nc2ccccc2nc1N1CCOCC1,"inconclusive [inhibitor, partial curve, poor fit]"
13,CC1CCN(c2nc(/C=C/c3ccccc3)nc3ccccc23)CC1,"inconclusive [inhibitor, partial curve]"
14,COC(=O)c1[nH]c2cccc(C)c2c1NC(=O)CN1CCN(c2ccccc2OC)CC1,"inconclusive [inhibitor, partial curve, poor fit]"
15,NC(=O)c1ccccc1NC(=O)NC1CCCCC1,"inconclusive [inhibitor, single point]"
16,CC1CCN(S(=O)(=O)c2ccc(C(=O)NC3CCS(=O)(=O)C3)cc2)CC1 (configuration not stated),"inconclusive [inhibitor, partial curve, poor fit]"
17,O=C(COC(=O)c1ccc(CO)cc1)Nc1ccc2ccccc2c1,inactive
18,Nc1nc(-c2ccc(Br)cc2)c(S(=O)(=O)c2ccccc2)s1,"inconclusive [inhibitor, partial curve]"
19,COc1ccc(N2CCOCC2)c(NC(=O)c2cc3ccccc3o2)c1,inactive
20,Cc1cc(=O)[nH]c(SCC(=O)N2CCCc3ccccc32)n1,"inconclusive [inhibitor, partial curve]"
21,COC(=O)c1c(NC(=O)COC(=O)C2CCC2)sc(C)c1C,"inconclusive [inhibitor, full curve, poor fit]"
22,N#CC(c1ccccc1)c1cnccn1 (configuration not stated),"inconclusive [inhibitor, partial curve, poor fit]"
23,CCCCN(C)CCNC(=O)C(=O)c1c(C)[nH]c2ccccc12,"inconclusive [inhibitor, full curve, poor fit]"

row,Compound,Potency
1,CNc1ccc(/C=C(\CCC(=O)O)c2nc3ccccc3s2)cc1[N+](=O)[O-],"inconclusive [inhibitor, partial curve, poor fit]"
2,CCC(=O)N(Cc1c(C)nn(-c2ccccc2)c1Cl)c1ccc(Cl)cc1,"inconclusive [inhibitor, partial curve]"
3,N=c1c(C(=O)NCc2ccco2)cc2c(=O)n3ccccc3nc2n1Cc1ccccc1,"inconclusive [inhibitor, full curve, poor fit]"
4,C/C(=C\c1ccc(F)cc1)C(=O)c1c(C)cc(C)[nH]c1=O,inactive
5,CC(C)Cc1ccccc1O,"inconclusive [inhibitor, full curve, poor fit]"
6,CC1=C(C(=O)OC2CCCCC2)C(c2cccnc2)n2ncnc2N1 (configuration not stated),"inconclusive [inhibitor, full curve, poor fit]"
7,Cc1cc(NC(=O)c2ccc3c(c2)C(=O)N(Cc2ccccc2)C3=O)no1,"inconclusive [inhibitor, single point]"
8,C(=C\c1ccco1)/C=N/n1cnnc1,"inconclusive [inhibitor, partial curve, poor fit]"
9,Fc1ccccc1N1CCN(CCCc2ccccc2)CC1,inactive
10,O=C(CSc1nc2sccc2c(=O)[nH]1)N1CCN(c2ccccc2)CC1,inactive
11,CCOC(=O)N1CCN(C(=O)c2ccc(CS(=O)(=O)c3ccc(OC)cc3)o2)CC1,"inconclusive [inhibitor, partial curve]"
12,COc1ccc(-c2nnc(SC(C)C(=O)NCc3ccc4c(c3)OCO4)n2Cc2ccco2)cc1 (configuration not stated),"inconclusive [inhibitor, full curve, poor fit]"
13,Fc1ccccc1NC(=S)N(CCCN1CCOCC1)Cc1cccnc1,"inconclusive [inhibitor, single point]"
14,O=[N+]([O-])c1ccc(/C=N/N2CCN(Cc3ccccc3)CC2)cc1,inactive
15,CSc1cc(-c2ccncc2)nc(-c2ccc(Cl)cc2)c1,inactive
16,Cc1cc(C)cc(N(CCC#N)C(=O)COC(=O)CCc2c[nH]c3ccccc23)c1,"inconclusive [inhibitor, single point]"
17,CCOC(=O)c1c(-c2ccc3ccccc3c2)csc1NC(=O)CCCC(=O)O,"inconclusive [inhibitor, partial curve]"
18,CC1(C)CC(=O)C(C=NCc2cccnc2)=C(O)C1,"inconclusive [inhibitor, full curve, poor fit]"
19,CCOc1ccc(NC(=O)C(CC)NC(=O)c2ccccc2CO)cc1 (configuration not stated),"inconclusive [inhibitor, full curve, poor fit]"
20,O=C(NCCC1=CCCCC1)c1ccc2c(c1)N(Cc1ccc(F)cc1)C(=O)c1ccccc1S2(=O)=O,inactive
21,COc1ccc2nc3sc(C(=O)Nc4cc(Cl)c(OC)cc4OC)cc3cc2c1,inactive
22,Cc1ccc(NC(=O)CN2CCOCC2)cc1C,"inconclusive [inhibitor, partial curve, poor fit]"
23,COc1cc(C2CC(=O)N(CC(=O)NCC3CCCO3)c3ccccc3S2)cc(OC)c1OC (configuration not stated),inactive

row,Compound,Potency
1,Cc1nc2ccccn2c1C(=O)Nc1ccc2c(c1)OCCO2,"inconclusive [inhibitor, partial curve, poor fit]"
2,CC(=O)Oc1ccc(N(C(C)=O)S(=O)(=O)c2cc([N+](=O)[O-])ccc2C)cc1,"inconclusive [inhibitor, full curve]"
3,Nc1c(C(=O)Nc2cccc(Cl)c2)sc2nc3c(cc12)CN(Cc1ccccc1)CC3,"inconclusive [inhibitor, single point]"
4,COC(=O)C(C)N(c1ccc(C)cc1)S(=O)(=O)c1c(C)[nH]c(=O)[nH]c1=O (configuration not stated),"inconclusive [inhibitor, single point]"
5,Cc1nn(C)c(C)c1S(=O)(=O)N(CC(=O)Nc1ccc2c(c1)OCO2)c1ccc(C(C)C)cc1,"inconclusive [inhibitor, full curve]"
6,C=CCNC(=S)N/N=C/c1ccc(C(C)(C)C)cc1,inactive
7,COc1ccccc1C1CCN(Cc2cccc([N+](=O)[O-])c2)CC1,inactive
8,COC1(NC(=O)c2ccccc2)C(C)=CC(=O)C=C1C,inactive
9,Cc1cc(Nc2cccc(C(F)(F)F)c2)ncn1,inactive
10,O=C(CCCCCN1C(=O)CCC1=O)Nc1ccc(Br)cc1F,"inconclusive [inhibitor, partial curve]"
11,Cc1ccc(NC(=O)N2CCCC(c3nc(-c4ccc(F)cc4)no3)C2)cc1 (configuration not stated),"inconclusive [inhibitor, full curve, poor fit]"
12,CCCCn1nc(C(=O)Nc2ccc3c(c2)OCCO3)c2ccccc2c1=O,inactive
13,CCOc1ccc(/C(O)=C2/C(=O)C(=O)N(CC3CCCO3)C2c2ccc(C)o2)cc1 (configuration not stated),inactive
14,O=C(NCCS(=O)(=O)N1CCN(c2ccccc2F)CC1)c1c(F)cccc1F,"inconclusive [inhibitor, partial curve, poor fit]"
15,O=C(CSc1nc2ccccc2c(=O)n1CC1CCCO1)NCC1CCCO1 (configuration not stated),"inconclusive [inhibitor, single point]"
16,Cc1ccc(NC(=O)CCc2nc3sc4c(c3c(=O)[nH]2)CCCC4)nc1,"inconclusive [inhibitor, single point]"
17,CC(C)(C)OC(=O)NCCCC[C@H](NC(=O)c1nc[nH]c1C(=O)NC1CCN(C(=O)OC(C)(C)C)CC1)C(=O)OC(C)(C)C,inactive
18,COc1ccc(NC(=O)C2CCN(c3cc(-c4ccccc4)nc4ncnn34)CC2)cc1OC,inactive
19,Nc1c(C(=O)NCc2ccccc2)nnn1Cc1ccccc1,"inconclusive [inhibitor, full curve, poor fit]"
20,Cc1cn(C)c(CC(=O)NCc2ccc(F)cc2)c1C(=O)O,inactive
21,CCn1nc(C(=O)OCC(=O)N(CCC#N)c2ccccc2)c2ccccc2c1=O,"inconclusive [inhibitor, full curve, poor fit]"

# — PubChem BioAssay AID485294 (National Center for Advancing Translational Sciences (NCATS), 2010)
